In all, about 18,000 sequences were measured (“TetR repression strength (sort-seq, GFP reporter)”: median about 0.23, highest 2% from about 0.68 on). The list shows a part of the results.

In the assay the target is TetR (class B, Tn10) (UniProt P04483). As to the kind of experiment: TetR repression strength (sort-seq, GFP reporter) (relative to tetO2 = 1); higher = stronger repression. The settings on record: E. coli. The gist of the method: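 Repression strength is the top bin index plus one minus the read-weighted mean bin, relative to the unaltered operator's value. A low-copy library in E. coli SIG10-MAX randomized eight operator positions between a constitutive promoter and sfGFP, with TetR expressed constitutively; cells grew 5 h at 37 °C in LB with 50 µg/mL chloramphenicol and 10^6 were FACS-sorted into 13 bins that were each Illumina-sequenced. Three independent transformations were averaged, keeping only members with ≥30 reads in all replicates and CV ≤0.5.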
UniProt P04483, sequence (P04483 whole entry): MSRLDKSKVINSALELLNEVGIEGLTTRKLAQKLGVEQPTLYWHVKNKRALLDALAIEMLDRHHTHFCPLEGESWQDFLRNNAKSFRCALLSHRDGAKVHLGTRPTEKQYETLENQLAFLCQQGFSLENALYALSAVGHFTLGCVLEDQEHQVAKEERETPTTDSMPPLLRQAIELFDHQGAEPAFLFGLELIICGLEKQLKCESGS
Sequence TCCCTTTGAGTAAGTGAGA returned a TetR repression strength of 1.15.
With TCCCGCCTAGTGGTTGAGA, the TetR repression strength turned out to be 0.217.
TCCCGAGAAGTGTACGAGA showed a TetR repression strength of 0.207.
TCCCACCGAGTGGAGGAGA came in with a TetR repression strength of 0.172.
In turn, TCCCGTGAAGTATGAGAGA had a TetR repression strength of 0.294.
TCCCTGTGAGTAAAGGAGA showed a TetR repression strength of 0.232.
For TCCCAACGAGTCTTTGAGA, the TetR repression strength was 0.167.
TCCCAGTGAGTGTTGGAGA displayed a TetR repression strength of 0.21.
TCCCCTCTAGTACACGAGA came in with a TetR repression strength of 0.398.
Turning to TCCCCAAAAGTCTTGGAGA, the TetR repression strength came out at 0.681.
The sequence TCCCTGGCAGTGGATGAGA yielded a TetR repression strength of 0.233.
TCCCACGAAGTACCGGAGA came in with a TetR repression strength of 0.0264.
In the case of TCCCGTTCAGTGCTCGAGA, the TetR repression strength turned out to be 0.442.
With TCCCGGATAGTGATGGAGA, the TetR repression strength came out at 0.208.
As to TCCCGGGCAGTGTGGGAGA, the TetR repression strength is 0.0627.
TCCCTTGTAGTCGAGGAGA gave a TetR repression strength of 0.136.
As to TCCCTATGAGTGAACGAGA, the TetR repression strength amounted to 0.424.
Turning to TCCCAGCAAGTTATGGAGA, the TetR repression strength worked out at 0.701.
In turn, TCCCCGTGAGTTTGTGAGA had a TetR repression strength of 0.175.
In turn, TCCCCGTCAGTTAAGGAGA gave a TetR repression strength of 0.217.
As for TCCCATCCAGTATCGGAGA, the TetR repression strength stood at 0.255.
Turning to TCCCATCCAGTACCGGAGA, the TetR repression strength was determined as 0.23.
As for TCCCGCTCAGTGGGAGAGA, the TetR repression strength is 0.184.
The sequence TCCCAGTGAGTGCGTGAGA returned a TetR repression strength of 0.175.
The sequence TCCCAGTGAGTATGGGAGA gave a TetR repression strength of 0.207.
In turn, TCCCGATAAGTGCAGGAGA had a TetR repression strength of 0.393.
Take TCCCGGGTAGTGACGGAGA: the TetR repression strength is 0.181.
TCCCAGTAAGTGTTCGAGA showed a TetR repression strength of 0.149.
TCCCTTAGAGTGGGAGAGA gave a TetR repression strength of 0.18.
Under TCCCTGATAGTGTACGAGA stands 0.254; under TCCCCCAGAGTAACCGAGA, 0.622.
TCCCGGGAAGTATATGAGA gave a TetR repression strength of 0.207.
Sequence TCCCGGGTAGTTCCTGAGA gave a TetR repression strength of 0.168.
TCCCCGGAAGTGACGGAGA returned a TetR repression strength of 0.183.
Sequence TCCCGACAAGTAACGGAGA registered a TetR repression strength of 0.162.
In turn, TCCCATCAAGTAGCAGAGA gave a TetR repression strength of 0.207.
The figure for TCCCAACGAGTAGACGAGA is 0.217; for TCCCTCGAAGTATTCGAGA it is 0.252; for TCCCATGCAGTTCTGGAGA it is 0.375.
As to TCCCACAAAGTCGGGGAGA, the TetR repression strength turned out to be 0.207.
The figure for TCCCTGATAGTGGGTGAGA is 0.0505; for TCCCCAGCAGTCCTCGAGA it is 0.504.
TCCCAGGGAGTCACGGAGA came in with a TetR repression strength of 0.284.
In turn, TCCCGTGGAGTAGCAGAGA returned a TetR repression strength of 0.169.
In turn, TCCCGAGCAGTGGACGAGA gave a TetR repression strength of 0.213.
Regarding TCCCGCGGAGTCACTGAGA, the TetR repression strength came out at 0.415.
In turn, TCCCTACAAGTCATCGAGA returned a TetR repression strength of 0.309.
The figure for TCCCTAGCAGTGGTTGAGA is 0.265.
On to TCCCACATAGTTGTTGAGA, for which the TetR repression strength came to 0.297.
Turning to TCCCCTAGAGTACAGGAGA, the TetR repression strength was 0.185.
In turn, TCCCGTGCAGTTGTGGAGA gave a TetR repression strength of 0.231.
On to TCCCGTGCAGTTGAGGAGA, for which the TetR repression strength turned out to be 0.33.
As to TCCCCGCAAGTATGGGAGA, the TetR repression strength amounted to 0.152.
The figure for TCCCGGGTAGTTATAGAGA is 0.121.
In the case of TCCCTGTAAGTGCCTGAGA, the TetR repression strength is 0.24.
For TCCCTGTGAGTGGAAGAGA, the TetR repression strength amounted to 0.181.
Regarding TCCCCCGGAGTAGGGGAGA, the TetR repression strength came to 0.0972.
For the sequence TCCCCAATAGTTGAGGAGA, the TetR repression strength was 0.343.
The figure for TCCCCTTCAGTCGGGGAGA is 0.202.
On to TCCCAGCTAGTCTTCGAGA, for which the TetR repression strength was found to be 0.24.
In turn, TCCCAACTAGTATTTGAGA displayed a TetR repression strength of 0.204.
Take TCCCGGTAAGTCCTGGAGA: the TetR repression strength amounted to 0.204.
TCCCTTTGAGTGTGTGAGA gave a TetR repression strength of 0.16.
With TCCCCGGTAGTGCCTGAGA, the TetR repression strength amounted to 0.252.
With TCCCCTGGAGTTTTGGAGA, the TetR repression strength worked out at 0.0461.
TCCCGCTTAGTAAATGAGA had a TetR repression strength of 0.415.
In turn, TCCCGTAAAGTCCGGGAGA yielded a TetR repression strength of 0.173.
As to TCCCCACAAGTTACAGAGA, the TetR repression strength amounted to 0.244.
The sequence TCCCCACGAGTAGCGGAGA registered a TetR repression strength of 0.131.
As for TCCCCAAAAGTTGTAGAGA, the TetR repression strength turned out to be 0.259.
With TCCCACTCAGTGATAGAGA, the TetR repression strength was determined as 0.701.
On to TCCCGCACAGTGATCGAGA, for which the TetR repression strength came out at 0.275.
Consider TCCCTTAGAGTGATCGAGA, for which the TetR repression strength came to 0.338.
Take TCCCAGCCAGTTTAAGAGA: the TetR repression strength was determined as 0.296.
In turn, TCCCGGCAAGTGTGTGAGA gave a TetR repression strength of 0.258.
On to TCCCGTTTAGTCCGTGAGA, for which the TetR repression strength was found to be 0.271.
Under TCCCGCTGAGTTCCAGAGA stands 0.207; under TCCCTTTCAGTTATCGAGA, 0.602.
As for TCCCTTTGAGTTAATGAGA, the TetR repression strength came to 0.278.
Take TCCCAAGGAGTACTAGAGA: the TetR repression strength amounted to 0.266.
In turn, TCCCGGGTAGTTGGAGAGA yielded a TetR repression strength of 0.506.
The figure for TCCCCTGCAGTCATGGAGA is 0.0833; for TCCCGGCAAGTAACGGAGA it is 0.16; for TCCCTCGTAGTGGCGGAGA it is 0.385.
TCCCCGTAAGTGGGGGAGA came in with a TetR repression strength of 0.0711.
With TCCCGGGGAGTTGTGGAGA, the TetR repression strength turned out to be 0.215.
Sequence TCCCCTAGAGTTAAGGAGA came in with a TetR repression strength of 0.425.
Under TCCCATTTAGTGAGGGAGA stands 0.298; under TCCCTATCAGTGCTAGAGA, 0.841.
For the sequence TCCCAAGAAGTGGTGGAGA, the TetR repression strength was 0.143.
Sequence TCCCTCGCAGTCATGGAGA returned a TetR repression strength of 0.284.
TCCCACCGAGTCTTGGAGA showed a TetR repression strength of 0.146.
The sequence TCCCGGTGAGTGTTGGAGA had a TetR repression strength of 0.494.
Under TCCCGGTGAGTGGATGAGA stands 0.254; under TCCCGTAGAGTTCACGAGA, 0.29.
TCCCTTAAAGTGGCCGAGA had a TetR repression strength of 0.402.
In turn, TCCCTCTGAGTCACCGAGA returned a TetR repression strength of 0.263.
On to TCCCAATTAGTTGGAGAGA, for which the TetR repression strength worked out at 0.281.
TCCCTGGAAGTTGAGGAGA showed a TetR repression strength of 0.219.
On to TCCCTGATAGTTGGGGAGA, for which the TetR repression strength was 0.165.
TCCCCGGAAGTGTCGGAGA displayed a TetR repression strength of 0.0979.
TCCCTCGTAGTCTGAGAGA gave a TetR repression strength of 1.03.
Sequence TCCCGTAGAGTGTTGGAGA yielded a TetR repression strength of 0.145.
The figure for TCCCAGTGAGTCGCGGAGA is 0.104.
Turning to TCCCGGTGAGTTGAGGAGA, the TetR repression strength came to 0.395.
TCCCAGTGAGTTCGCGAGA registered a TetR repression strength of 0.402.
Take TCCCGGGGAGTCGTAGAGA: the TetR repression strength is 0.224.
Regarding TCCCGTCTAGTTACAGAGA, the TetR repression strength was determined as 0.338.
The sequence TCCCCGTTAGTGCTAGAGA displayed a TetR repression strength of 0.337.
TCCCCCTGAGTGCTTGAGA came in with a TetR repression strength of 0.366.
The sequence TCCCATGGAGTTAAGGAGA returned a TetR repression strength of 0.223.
In the case of TCCCACGCAGTAGCTGAGA, the TetR repression strength stood at 0.127.
As for TCCCTGGTAGTGTTCGAGA, the TetR repression strength was found to be 0.0521.
For the sequence TCCCGAAAAGTCCCCGAGA, the TetR repression strength is 0.402.
On to TCCCGACCAGTTCATGAGA, for which the TetR repression strength was determined as 0.173.
The sequence TCCCCGGGAGTTCACGAGA returned a TetR repression strength of 0.251.
TCCCCGGAAGTTTCCGAGA registered a TetR repression strength of 0.377.
TCCCAAACAGTCGACGAGA came in with a TetR repression strength of 0.468.
Regarding TCCCGGACAGTATAGGAGA, the TetR repression strength is 0.514.
Consider TCCCTTTCAGTGGATGAGA, for which the TetR repression strength came out at 0.498.
Turning to TCCCTTTAAGTTAAGGAGA, the TetR repression strength stood at 0.533.
Take TCCCCCTTAGTGTCAGAGA: the TetR repression strength is 0.262.
TCCCCATCAGTACGGGAGA showed a TetR repression strength of 0.0704.
As for TCCCTTGAAGTGGGCGAGA, the TetR repression strength is 0.0979.
Under TCCCTCTGAGTATCAGAGA stands 0.163; under TCCCCGTTAGTTGGGGAGA, 0.13.
Consider TCCCGGACAGTCGGGGAGA, for which the TetR repression strength came to 0.278.
In turn, TCCCTGTAAGTCCATGAGA came in with a TetR repression strength of 0.205.
TCCCACGAAGTAGATGAGA: the TetR repression strength was 0.131.
The figure for TCCCTAAAAGTACGGGAGA is 0.217.

The values are drawn from a collection of fitness landscapes (doi:10.1038/s41467-024-54723-y).
